About 410 (8.5%) of roughly 4,800 compounds showed an effect of 50% or more. The list shows a part of the results.

For this test, the system named is Plasmodium falciparum. Put plainly: Confirmatory screen in NF54 pLDH assay, in single point, at 2uM, 72h. The test is classed as functional, Erythrocyte. The settings on record: timepoint 72 hour.
With `CC(C)N(CC(C)(C)O)C(=O)Nc1ccc(C(N)=O)c(Cl)c1`, the “% Inhibition” value came to 10%. Next, `COc1ccc(CCNC(=O)c2nnc(Cc3c(F)cccc3Cl)o2)cc1OC`: -3%. Next, `CC12CN(S(=O)(=O)c3ccc4c(c3)OCCO4)C3(C(=O)OCc4ccccc4)CC1CCC23C` (stereo unspecified): 64%; `O=C(c1cccs1)N1CCN(C2CCCCCC2)CC1`: 8%. `O=C(CCc1nc2cccnc2[nH]1)NCCN1CCOCC1`: the “% Inhibition” value is reported as 14%.

As to `CCCC1CCC(c2ccc(-c3noc(-c4ccc(O)c(F)c4)n3)cc2)CC1` (stereo unspecified), the “% Inhibition” value amounted to 4%. Turning to `O=C(Cc1c[nH]c2ccccc12)N[C@H]1CCS(=O)(=O)C1`, the “% Inhibition” value is reported as -2%. Regarding `O=C1C2CC2C(=O)N1Cc1ccccc1` (stereo unspecified), the “% Inhibition” value is 10%. The result for `Cn1cc(C(=O)NCC2CCN(S(=O)(=O)c3cccs3)CC2)cn1` reads 2%; that for `COc1ccc(C(=O)N2CCC3(CC2)C[C@@H](O)CCO3)cc1`, 13%. Next, `Nc1cc2c(cc1C1=Nc3ccccc3C(c3ccccc3)(c3ccccc3)N1)OCO2`: 10%; `C[C@H]1NC(=O)N(CCc2nc(C(F)(F)F)cs2)C1=O`: -12%; `COc1ccc(Oc2c(CN(CC3CC3)C(=O)c3ccccc3)c(-c3ccccc3)nn2C)cc1`: 1%. Consider `O=C1NC(=O)C2(CCN(C(=O)c3cc(-c4ccco4)[nH]n3)CC2)N1`, for which the “% Inhibition” value is reported as -10%. On to `O=c1[nH]c(=O)n(Cc2cc(Cl)cc3c2OCOC3)cc1Cl`, for which the “% Inhibition” value worked out at 12%. In the case of `CC1CN(Cc2ccccc2)CC(C)C1NC(=O)c1ccncc1F` (stereo unspecified), the “% Inhibition” value is given as 7%. The result for `NC(=NCc1cccc2cccnc12)N1CCN(c2nccs2)CC1` reads 49%. Take `COc1ccc2c(c1)[n+](CC(=O)c1ccc(-c3ccc(Br)cc3)cc1)c(CO)n2C`: the “% Inhibition” value is on record as 54%.

For the compound `c1ccc(-c2nc(C[n+]3ccc4c(c3)CCCC4)cs2)cc1`, the “% Inhibition” value is reported as 56%. For the compound `CC(C)(C)C(=O)N1CCC(O)(CS(=O)(=O)Cc2ccccc2)CC1`, the “% Inhibition” value is 7%. Next, `Cc1ccc(-c2cc(O)cc(CC[C@H]3CCCCN3)c2)c(C)n1`: 66%.

In the case of `O=S(=O)(N[C@H](c1nccs1)C1CC1)c1c(F)cccc1Cl`, the “% Inhibition” value came to 10%.

For the compound `C[C@@H]1CN(CCN(C)C(=O)Nc2nc(C3CC3)cs2)C[C@H](C)O1`, the “% Inhibition” value was determined as 9%. As for `NC(=O)C(=O)Nc1ccccc1C(F)(F)F`, the “% Inhibition” value was -11%. As to `O=C(Cn1cccc1-c1nc(-c2ccc(F)c(Br)c2)no1)N1CCc2ccccc2C1`, the “% Inhibition” value is 14%. Turning to `O=C([C@@H]1CNc2ccccc2O1)N1CCOCC1`, the “% Inhibition” value is given as -1%. With `Cc1cc(CN(C)Cc2nccn2C)ccc1N1CCCCC1`, the “% Inhibition” value is 1%.

Take `CCN1CCC[C@@H]1CNCc1ccc2c(c1)OCCO2`: the “% Inhibition” value was determined as 1%.

On to `O=C(N[C@H]1CCCc2occc21)c1ccco1`, for which the “% Inhibition” value was determined as 7%.

In the case of `O=C(NCc1ccc(F)cc1F)[C@H]1CCCN(c2cn[nH]c(=O)c2)C1`, the “% Inhibition” value is listed as -8%.

In the case of `Cc1c(C(=O)c2ccc(Cl)c(Cl)c2)sc2nc3cc(F)c(F)cc3n12`, the “% Inhibition” value is -7%. As for `CCOc1ccc(C(N)=O)cc1Br`, the “% Inhibition” value was 5%. Take `COc1cccc(OS(=O)(=O)Cc2ccon2)c1`: the “% Inhibition” value was 9%. As to `Cn1cnn(CC(=O)N2CCc3sccc3C2)c1=O`, the “% Inhibition” value was 12%.

As for `Cc1csc(CNC(=O)C(=O)Nc2ccc3c(c2)C(=O)N(C)C3=O)n1`, the “% Inhibition” value is 8%. The result for `COc1ccc(OC)c([C@H](c2cc3c(cc2O)OCO3)N2CCCC2)c1` reads 9%. As to `Cn1ccc2cccc(NC(=O)N3CC(C)(CO)C3)c21`, the “% Inhibition” value came to 9%. Regarding `Cc1ccc(CNC(=O)C[C@H]2CCS(=O)(=O)C2)cc1`, the “% Inhibition” value is listed as -8%. In the case of `CCCCc1cc(NC(=O)c2cnc(C)cn2)on1`, the “% Inhibition” value is 7%. On to `CCOc1cc(=O)c(C(=O)N2CCCCC2)nn1-c1ccc(OC)cc1`, for which the “% Inhibition” value is listed as -13%. Regarding `COc1cc(N2CCn3c(nc4cc(Cl)ccc43)C2)ccc1NC(=O)c1ccccc1OC`, the “% Inhibition” value was -10%.

As to `N#Cc1ccc(N2CCN3C(=O)NCC3C2)nc1N1CCN2C(=O)NCC2C1` (stereo unspecified), the “% Inhibition” value was -19%. On to `O=C(CCn1ncc2c(Cl)cccc21)NCC1CCCC1`, for which the “% Inhibition” value was -19%. As for `O=S(=O)(Cc1ccno1)NCCc1ccccc1OC(F)F`, the “% Inhibition” value worked out at 11%. For `CN(C)c1ccc(C2OCC3(CCC4(COC(c5ccc(N(C)C)cc5)OC4)O3)CO2)cc1` (stereo unspecified), the “% Inhibition” value was -5%. For the compound `CC1CCC2(CC1)N=C(c1ccc(Cl)c(Cl)c1)C(=O)N2` (stereo unspecified), the “% Inhibition” value was 11%. The result for `O=C(Nc1ccccc1Cl)N1CCC(N2CCc3sccc3C2)CC1` reads 43%. `COC(=O)c1ccc(Nc2nc(C)c3nc(C)n(-c4ccc(C(=O)OC)cc4)c3n2)cc1`: the “% Inhibition” value is recorded as 3%. Next, `O=C(c1cccc(COc2ccc(Br)cc2)c1)N1CCN(Cc2ccccc2)CC1`: -14%; `Cn1ncc2c(N3CC(=O)N(C4CC4)C3)ncnc21`: -15%; `CC1CN(C(=O)Cn2nnc3ccccc3c2=O)CC1N(C)C` (stereo unspecified): -6%.

Consider `COc1cccc2c1N(CC(=O)NCC(F)(F)F)CC[C@@H]2C`, for which the “% Inhibition” value worked out at 7%. With `O=C(C1CCCC2CCCCC21)N1CCN(c2ncccn2)CC1` (stereo unspecified), the “% Inhibition” value worked out at 3%. For the compound `Cc1ccc(CNCCC2=CCCCC2)cc1`, the “% Inhibition” value amounted to 7%. The result for `C[C@H](NCc1cc(C(N)=O)cs1)c1cccc(Cl)c1` reads 11%; that for `CCOc1ncc(Br)cc1C(=O)O`, -19%. Take `Cn1c(CNC(=O)NCc2cc(Cl)c(Cl)n2C)cc(Cl)c1Cl`: the “% Inhibition” value turned out to be 10%. Next, `Cc1ccc(S(=O)(=O)Cc2nc(-c3ccc(C(=O)Nc4ccc(C)cc4Cl)cc3)oc2C)cc1`: 14%; `O=C(O)Cc1sc(-c2ccc(Cl)cc2)nc1-c1ccc(Oc2ccccc2)cc1`: 7%; `COc1nc(N2[C@@H]3CC[C@H]2C[C@@H](OC)C3)ncc1F`: 52%. Regarding `Cc1cncc(C=Cc2c(Cl)cccc2Cl)n1`, the “% Inhibition” value is recorded as -9%. Take `Cc1nsc2ncc(C(=O)N3CCC(C)CC3)c(N3CCC(C(=O)Nc4cc(F)ccc4F)CC3)c12`: the “% Inhibition” value amounted to 44%. `c1cc(CN2CCN(C3CCCCCC3)CC2)ccn1`: the “% Inhibition” value is -17%. Next, `Cc1nsc(N2CCCC(C(C)NC(=O)OC(C)(C)C)C2)n1` (stereo unspecified): -1%; `CCCN1CCN(S(=O)(=O)c2cccc3nonc23)CC1`: 11%; `CCC(=O)NCCNC(=O)c1ccco1`: 8%. For the compound `O=C(NC1CCN(Cc2ccccc2)CC1)c1cncc(O)c1`, the “% Inhibition” value was -4%. With `Cc1cccc(NS(=O)(=O)c2ccc3nncn3c2)c1`, the “% Inhibition” value was -13%. Regarding `Cc1nn(C)c(NC(=O)c2ccc(Cl)cc2)c1C1=CCCCC1`, the “% Inhibition” value stood at 9%. For `Cc1c(C(=O)N2CC[C@H](CC(C)(C)C)C2(C)C)nnn1-c1cnn(C)c1`, the “% Inhibition” value was -9%. In the case of `CCN1CCN(c2nc3ncn(CC(=O)NCCc4ccc(Cl)cc4)c(=O)c3s2)CC1`, the “% Inhibition” value came out at 19%. Consider `CC(C)c1ccc(-c2nc(CNc3cc4c(cc3Cl)NC(=O)CO4)cs2)cc1`, for which the “% Inhibition” value was 1%. Next, `CCC(CC)N1CC(C(=O)NC2COc3ccc(C)cc32)CC1=O` (stereo unspecified): -21%. Next, `CN(C(=O)c1n[nH]c2c1CCC2)[C@H]1CCCc2c1cnn2C`: -4%; `CN1CCOC(C(=O)NC(c2c(F)cccc2F)C(F)(F)F)C1` (stereo unspecified): 7%; `COc1ccc(NC(=O)[C@@H](c2cc(OC)c(OC)c(OC)c2)N(Cc2ccccc2)C(=O)Cn2nnc3ccccc32)cc1`: -15%.

Consider `CCOC(=O)C(F)(F)[C@@H](NCC(=O)OC)C1CC1`, for which the “% Inhibition” value was -5%. Regarding `COc1ccc(-c2noc(Cn3c(=O)c4ccccc4n(CC(=O)Nc4cc(Cl)ccc4C)c3=O)n2)cc1`, the “% Inhibition” value is listed as 5%. Next, `Cc1cc(C)n(-c2nc(Nc3ccc(Cl)cc3)nc(Nc3ccc(Cl)cc3)n2)n1`: 87%. `COc1ccc(C(=O)N2CC(C(=O)O)CCC2c2ccccc2)cc1` (stereo unspecified): the “% Inhibition” value came out at 13%.

On to `CC(C(=O)Nc1cc(F)ccc1F)N1CCCC(c2nncn2C(C)C)C1` (stereo unspecified), for which the “% Inhibition” value was 2%.

With `O=C(O)CC1(NC(=O)c2cc(Oc3ccccc3)ccn2)CCC1`, the “% Inhibition” value was -1%. Regarding `Cn1c(=O)n(C)c2cc3c(cc21)NC(=O)CS3(=O)=O`, the “% Inhibition” value turned out to be 5%. Regarding `Cc1nn(C)c(N)c1C(=O)N(C1CCC1)C1CCC1`, the “% Inhibition” value was -16%. The result for `COc1ccc(CN2CC[C@@H]3C(=O)NCCCCCCN(Cc4ccncc4)[C@@H]3C2)cc1Cn1ccnc1` reads 37%. For the compound `O=C(COC(F)F)N1CCc2ccncc21`, the “% Inhibition” value was -8%. `O=C(Nc1cccc2[nH]ncc12)c1ccco1`: the “% Inhibition” value was 8%. Take `Cn1n[n+](CC(=O)Nc2ccccc2Cl)c2ccccc21`: the “% Inhibition” value was 3%. Next, `O=C(OCc1cncs1)c1ccccc1`: 10%. Take `O=C(NCC(=O)N1CCC[C@H]1c1ccc2c(c1)OCCCO2)c1ccc(Br)cc1`: the “% Inhibition” value is -7%.

As to `CCn1ccc([C@H](C)NC(=O)c2cc(-c3ccc(OC)cc3)nc3c2c(C)nn3C)n1`, the “% Inhibition” value was 12%.

Consider `COc1ncnc(OC)c1CNc1cnn(C)c1`, for which the “% Inhibition” value was 6%.

On to `Cc1cccc(CN2C[C@@H](c3noc(-c4ccccn4)n3)CC2=O)c1`, for which the “% Inhibition” value was 6%.

For the compound `C[C@H](Nc1ccc(N2CCOCC2)nc1)c1cccc(CO)c1`, the “% Inhibition” value is 11%.

On to `O=C1NC(=O)[C@@H]2CN(S(=O)(=O)c3cc(F)cc(Cl)c3)C[C@H]12`, for which the “% Inhibition” value is listed as -15%. In the case of `O=C(NCCCc1ccccc1)c1ccc(CN2C(=O)CCn3nccc32)cc1`, the “% Inhibition” value stood at 25%. For the compound `Cc1cc(C)cc(NC(=O)CCn2c(=O)cc(C(F)(F)F)c3cn(C(C)C)nc32)c1`, the “% Inhibition” value was -13%. For the compound `Cc1cc(CS(=O)(=O)N2CCC[C@H]2c2noc(C)n2)no1`, the “% Inhibition” value is reported as 9%.

On to `CCC[C@@]1(C)C(=O)NCCN1Cc1nnc(-c2ccc(Cl)cc2)n1C`, for which the “% Inhibition” value is given as -14%. On to `O=C(CC(F)(F)F)NCc1ccccn1`, for which the “% Inhibition” value is -21%. Next, `Cc1ccccc1Nc1nnc(-c2ccccc2)c(-c2ccccc2)n1`: 5%; `CC1CCC2(C)c3[nH]c4ccccc4c3CCCN2C1=O` (stereo unspecified): -11%; `COc1nscc1CN(C)C(=O)c1ccc2c(c1)C(C)(C)CO2`: -12%.

Turning to `Cc1cnc(C)c(N2CCCN(c3cncc(F)c3)CC2)n1`, the “% Inhibition” value stood at 2%. Regarding `C[C@@]1(C(N)=O)CCCCN1Cc1cncs1`, the “% Inhibition” value was found to be 3%. In the case of `Cc1cc(NC(=O)CNC2C(C)CCN(C(=O)OC(C)(C)C)C2C)n(C(C)(C)C)n1` (stereo unspecified), the “% Inhibition” value is recorded as -2%.

These data come from ChEMBL document CHEMBL4888484, “Replenishing the malaria drug discovery pipeline: Screening and hit evaluation of the MMV Hit Generation Library 1 (HGL1) against asexual blood stage Plasmodium falciparum ,using a nano luciferase reporter read-out” (2022).
